Assay results from patent US20120058977A1, “PHARMACEUTICAL COMPOSITIONS AND METHODS FOR TREATING TUBERCULOSIS” (Rijksuniversiteit Groningen, priority 2009, published 2012).

Assays:
[1] = tested on: 3-ketosteroid 9α-hydroxylase (KSH) activity; conditions: AD 0.5 g/L, strain RG8-37 cell cultures
[2] = tested on: M. smegmatis ΔipdAB; experiment: Cell growth inhibition of M. smegmatis ΔipdAB (mineral glucose liquid medium or agar plates); conditions: HIL 200 mg/l; 37° C.; after 3 days

3aα-H-4α(3′-propionic acid)-5α-hydroxy-7aβ-methylhexahydro-1-indanone-δ-lactone [HIL, reference compound]
AD conversion (AD 9α-hydroxylation) ([1]; HIL 100 mg/L added, in 8 hours): 20% | inhibition of AD 9α-hydroxylation ([1]; HIL 100 mg/L): marked inhibition | growth of ΔipdAB mutant on glucose mineral agar plates [2]: no growth
